According to patent US11466066B2, “Variants of human BMP7 protein” (ELI LILLY AND COMPANY, priority 2017, dated 2022):
Marks after values point to notes of the source that are not given here.

Tests used:
[1] = Stir-induced aggregation (solubility) assay; type: physicochemical; settings: 40 μg/mL, pH 7.4, stirred 400 rpm
Protocol: Solubility/physical stability of human BMP7 protein and human BMP7 protein variants may be measured in a stir-induced aggregation assay. Proteins are diluted to 40 μg/mL with assay buffer (50 mM sodium phosphate, 150 mM NaCl, pH 7.4) to a total volume of 2 mL. This solution may be put in a 7 mL glass vial containing one ‘flea’ stir bar and stirred at 400-rpm at room temperature. At periodic intervals (typically 0, 30, 60, 90, 120, and 150 minutes) a 150 μL aliquot may be withdrawn and centrifuged for 2 minutes at 16,000×g in a 1.5 mL tube. The supernatant (120 μL) may be transferred to an HPLC vial and the amount of remaining protein may be determined by reversed-phase HPLC under the following conditions: Zorbax C8 SB-300® column (3.5 micron, 4.6×50 mm), mobile phase: A buffer=0.1% TFA (v/v) in water, B buffer=0.085% TFA (v/v) in acetonitrile; flow rate at 1 mL/minute; column heated to 60° C.; autosampler cooled to 10° C., 214 nm UV detection, 80 μL injection, and 20 minute run time using the linear gradient indicated below. From the HPLC chromatograms (not shown) the protein peak or peaks (e.g., mature and pro domains) are integrated and percent change from initial peak area may be calculated.

[2] = tested on: ADSC/ECFC co-culture stimulated with VEGF; test: VEGF-driven cord formation; type: cell-based; settings: 100 ng/ml; 10 ng/ml VEGF; 96 hours
Excerpt: An in vitro endothelial cord formation assay, a surrogate of angiogenesis, may be used to investigate the role of human BMP7 proteins on various growth factor established cords including, but not limited to, VEGF, basic FGF, and EGF established cords. Endothelial cord forming cells (ECFCs; passage 4-10 suitable for cord formation) may be cultured in EGM-2 MV (Lona) media containing a final concentration of 10% FBS and passaged onto type 1 collagen (fibrillar) coated flasks prior to seeding into the cord formation assay in vitro. […]
An ADSC/ECFC co-culture was unstimulated (basal) or stimulated with 10 ng/ml VEGF and treated simultaneously with PBS or 100 ng/ml human pro-BMP7 variant F9 or 100 nM sunitinib for 96 hours prior to immunohistochemistry for CD31 (green), α-smooth muscle actin (red), and Hoechst 33342 to stain all nuclei (blue). Resulting CD31-positive endothelial cords were visualized and quantitated using high content imaging. […]

[3] = target: T1, Noggin (Homo sapiens, UniProt Q13253); test: BMP inhibitor activity, hepcidin promoter luciferase: Noggin; type: cell-based
T1 construct: purchased R&D Systems
T1 sequence (Q13253 28-232): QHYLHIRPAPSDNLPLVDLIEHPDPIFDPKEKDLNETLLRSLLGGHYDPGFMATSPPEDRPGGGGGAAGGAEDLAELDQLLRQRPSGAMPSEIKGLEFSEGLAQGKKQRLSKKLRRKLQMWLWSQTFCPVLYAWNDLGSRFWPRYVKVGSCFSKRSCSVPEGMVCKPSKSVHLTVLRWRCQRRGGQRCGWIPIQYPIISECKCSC
Protocol: Briefly described, Hep3B2 cells stably transfected with a hepcidin promoter luciferase construct (hereinafter, referred to as Hep3B2_HepPro_luc cells) were used for BMP inhibitor experiments. Hep3B2_HepPro_luc cells may be plated at 30,000 cells per well in a tissue culture treated 96 well plate in DMEM (Hyclone) 5% FBS (Gibco) supplemented with non-essential amino acids (Hyclone) and 200 μg/ml gentecin (Hyclone) for 24 hours. Cells were then starved in OMEM+0.2% BSA for 5 hours. Cells were treated with a mixture of human BMP7 proteins and variants thereof in OMEM (Gibco)+0.2% BSA (Gibco) for 18 hours then developed for luciferase activity utilizing Luciferase reporter Gene Assay Kit (Roche). BMP7 proteins were added at concentrations in the linear range of the assay, at 1 nM and 100 pM. Inhibitors were added at various concentrations in molar excess of the particular BMP7 protein being tested. All BMP inhibitors except Follistatin were purchased from R&D Systems. Follistatin and BMP7 proteins and variants thereof were generated at Eli Lilly and Company.

B1: Human pro-BMP7 Variant F9: wild type pro-domain + variant mature BMP7 F9 (402 aa), SEQ ID NO: 16 (protein)
chain: DFSLDNEVHSSFIHRRLRSQERREMQREILSILGLPHRPRPHLQGKHNSAPMFMLDLYNAMAVEEGGGPGGQGFSYPYKAVFSTQGPPLASLQDSHFLTDADMVMSFVNLVEHDKEFFHPRYHHREFRFDLSKIPEGEAVTAAEFRIYKDYIRERFDNETFRISVYQVLQEHLGRESDLFLLDSRTLWASEEGWLVFDITATSNHWVVNPRHNLGLQLSVETLDGQSINPKLAGLIGRHGPQNKQPFMVAFFKATEVHFRSIRSTGSKQRSQNRSKTPKNQEALRMANVAENSSSDQRQACKKHELYVSFRDLGWQDWIIAPEGYAAGYCEGECAFPLNSYMNATNHALVQTLVHVINPETVPKPCCAPTQLGAISVLYFDDSSNVILKKWRNMVVRACGCH
[1]; 0 minutes
  Percent of Material Precipitated: 0%
[1]; 30 minutes
  Percent of Material Precipitated: 9%
[1]; 60 minutes
  Percent of Material Precipitated: 23%
[1]; 90 minutes
  Percent of Material Precipitated: 36%
[1]; 120 minutes
  Percent of Material Precipitated: 43%
[1]; 150 minutes
  Percent of Material Precipitated: 55%
[2]
  Connected Tube Area - VEGF (% PBS): 18.66 ± 3.72%
[3]; molar excess 0.1X
  % inhibition: −15.2%
[3]; molar excess 1X
  % inhibition: −18.3%
[3]; molar excess 10X
  % inhibition: −23.6* %
[3]; molar excess 100X, Hep3B2_HepPro_luc cells, 18 hours
  % inhibition: −28.1* %
